Reference: the supplement of paper PMC4967469

What was measured:
Experiment in all cases: Viability of human cancer cell lines after 72 h of drug (GDSC screen)
[1] = compound: CC(C)=CC[C@@H](O)C1=CC(=O)c2c(O)ccc(O)c2C1=O [Shikonin]; conditions: top dose 16 µM; top dose inferred
Procedure: (§1)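 Human cancer cell lines in 384-well plates, medium with 10% serum, drug for 72 h over a 256-fold dose range (nine 2-fold or five 4-fold steps up to the top dose). Adherent lines were fixed and stained with the nucleic acid dye Syto60, suspension lines read with resazurin; signal relative to control wells, capped at 0 and 100%. One two-parameter sigmoid per drug and line, fitted in a mixed model over all curves with the slope shared within a line.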

[2] = compound: O=C1NC(=O)c2c1c(-c1ccccc1Cl)cc1[nH]c3ccc(O)cc3c21 [Wee1 inhibitor 681640]; conditions: top dose 2 µM; top dose inferred
Procedure: as §1

[3] = compound: Cc1cc(N2CCOCC2)cc2[nH]c(-c3c(NC[C@@H](O)c4cccc(Cl)c4)cc[nH]c3=O)nc12 [BMS-536924]; conditions: top dose 4 µM; screen: GDSC drug entry 1091; top dose inferred
Procedure: as §1

[4] = compound: Cc1ccc(-n2nc(C(C)(C)C)cc2NC(=O)Nc2ccc(OCCN3CCOCC3)c3ccccc23)cc1 [BIRB 0796]; conditions: top dose 10 µM; top dose inferred
Procedure: as §1

[5] = compound: Cc1cccc(-c2[nH]c(C(C)(C)C)nc2-c2ccc3nccnc3c2)n1 [SB-525334]; conditions: top dose 20 µM; top dose inferred
Procedure: as §1

[6] = compound: O=C(c1cc(Cc2n[nH]c(=O)c3ccccc23)ccc1F)N1CCN(C(=O)C2CC2)CC1 [Olaparib]
Procedure: as §1

[7] = compound: NC(=O)c1ccc(N(C(N)=O)c2c(F)cccc2F)nc1-c1ccc(F)cc1F [VX-702]; conditions: top dose 2 µM; top dose inferred
Procedure: as §1

[8] = top dose 5 µM, screen: GDSC drug entry 1017, top dose inferred
[9] = top dose 10 µM, screen: GDSC drug entry 1495

| Cell Line | AUC [1] | IC50 [1] [µM] | AUC [2] | IC50 [2] [µM] | AUC [3] | IC50 [3] [µM] | AUC [4] | IC50 [4] [µM] | AUC [5] | IC50 [5] [µM] | AUC [6, 8] | IC50 [6, 8] [µM] | AUC [6, 9] | IC50 [6, 9] [µM] | AUC [7] | IC50 [7] [µM] |
| --- | --- | --- | --- | --- | --- | --- | --- | --- | --- | --- | --- | --- | --- | --- | --- | --- |
| CCF-STTG1 (glioma, adherent) | 0.47 | 0.827 | 0.988 | > 2 | 0.905 | > 4 | 0.98 | > 10 | 0.91 | > 20 | 0.988 | > 5 | 0.987 | > 10 | 0.988 | > 2 |
| CFPAC-1 (pancreas, adherent) | 0.452 | 0.727 | 0.945 | > 2 | 0.863 | > 4 | 0.949 | > 10 | 0.984 | > 20 | 0.96 | > 5 | 0.939 | > 10 | 0.974 | > 2 |
| CHL-1 (melanoma, adherent) | 0.234 | 0.179 | 0.806 | 0.948 | 0.899 | > 4 | 0.982 | > 10 | 0.673 | 3.67 | 0.975 | > 5 | 0.92 | > 10 | 0.961 | > 2 |
| COLO-678 (large intestine, semi-adherent) | 0.594 | 1.95 | 0.962 | > 2 | 0.92 | > 4 | 0.984 | > 10 | 0.979 | > 20 | 0.977 | > 5 | 0.966 | > 10 | 0.982 | > 2 |
| COLO-679 (melanoma, adherent) | 0.258 | – | 0.931 | > 2 | 0.887 | > 4 | 0.97 | > 10 | 0.972 | > 20 | 0.977 | > 5 | 0.967 | > 10 | 0.97 | > 2 |
| COLO-680N (oesophagus, adherent) | 0.423 | – | 0.985 | > 2 | 0.985 | > 4 | 0.984 | > 10 | 0.985 | > 20 | 0.983 | > 5 | 0.96 | > 10 | 0.986 | > 2 |
| Ca9-22 (head and neck, adherent) | 0.388 | 0.505 | 0.899 | > 2 | 0.897 | > 4 | 0.97 | > 10 | 0.98 | > 20 | 0.963 | > 5 | 0.922 | > 10 | 0.986 | > 2 |
| Ca-Ski (cervix, adherent) | 0.415 | 0.567 | 0.944 | > 2 | 0.923 | > 4 | 0.89 | > 10 | 0.957 | > 20 | 0.971 | > 5 | 0.907 | > 10 | 0.972 | > 2 |
| Caov-4 (ovary, adherent) | 0.581 | 1.84 | 0.98 | > 2 | 0.946 | > 4 | 0.914 | > 10 | 0.919 | > 20 | 0.98 | > 5 | 0.929 | > 10 | 0.98 | > 2 |
| DAN-G (pancreas, adherent) | 0.985 | > 16 | 0.976 | > 2 | 0.949 | > 4 | 0.966 | > 10 | 0.954 | > 20 | 0.961 | > 5 | – | – | 0.991 | > 2 |
| DK-MG (glioma, adherent) | 0.659 | 3.46 | 0.978 | > 2 | 0.947 | > 4 | 0.977 | > 10 | 0.975 | > 20 | 0.978 | > 5 | 0.942 | > 10 | 0.978 | > 2 |
| Detroit562 (head and neck, adherent) | 0.668 | 2.87 | 0.938 | > 2 | 0.934 | > 4 | 0.967 | > 10 | 0.984 | > 20 | 0.965 | > 5 | 0.971 | > 10 | 0.982 | > 2 |
| EBC-1 (lung squamous cell carcinoma, adherent) | 0.51 | 1.07 | 0.973 | > 2 | 0.975 | > 4 | 0.946 | > 10 | 0.957 | > 20 | 0.958 | > 5 | 0.884 | > 10 | 0.97 | > 2 |
| ECC10 (stomach, suspension) | 0.49 | 0.936 | 0.865 | 1.9 | 0.751 | 1.37 | 0.983 | > 10 | 0.881 | > 20 | 0.967 | > 5 | 0.95 | > 10 | 0.951 | > 2 |
| EFO-21 (ovary, adherent) | 0.581 | 1.83 | 0.969 | > 2 | 0.926 | > 4 | 0.951 | > 10 | 0.971 | > 20 | 0.98 | > 5 | 0.88 | > 10 | 0.98 | > 2 |
| EFO-27 (ovary, adherent) | 0.339 | 0.318 | 0.921 | > 2 | 0.587 | 0.46 | 0.955 | > 10 | 0.953 | > 20 | 0.954 | > 5 | 0.905 | > 10 | 0.955 | > 2 |

The IC50 comes from the fitted curve, where viability falls to half of the control; a limit (>, <) means that the fit lies beyond the doses tested. AUC, from the same fit, is the share of area under the viability curve across the 256-fold dose range: 1 means no effect, lower means more sensitive. Where the top dose is marked as inferred, it was calculated from the reported fits. For part of these data: Drugs with an entry number were screened twice under separate entries, and the two screens often disagree.
